In PubChem BioAssay AID588855 (National Center for Advancing Translational Sciences (NCATS), 2011):
Among all 410,000 compounds or so, about 5,000 (1.2%) were called active. The shares of active, inactive and inconclusive entries below differ from those in the screen. Calls follow the shape of the dose curve; as a rule, active = well fitted inhibition curve with a large enough effect; inconclusive = small, poorly fitted or top-dose-only effect; inactive = no such curve, though single readings can be large or run the other way. Where the call is inconclusive, the potency comes from a doubtful curve fit.

Test: qHTS for Inhibitors of TGF-b; also: nearly all actives have a fitted effect of over 65% in size
Settings: HepG2 CAGA-GFP TGF-b/SMAD3 reporter, GFP fluorescence, 18 h, TGF-beta stimulated, 500 pg/mL final; series mostly up to 46.1 µM
Procedure, shortened: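 Inhibition was scored as loss of TGF-beta-induced (500 pg/mL final, 18 hours, 37 degrees C) GFP in HEPG2 cells carrying a CAGA-GFP reporter, in DMEM with 1% FBS. Well GFP was summed per cell; Activity was normalised to unstimulated and stimulated DMSO wells, then concentration-response fitting.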
Potency is read from the fitted curve at half-maximal effect; tags tell the direction and shape of the fitted curve.

SMILES | Potency
CC(C)(C)Nc1nc2nonc2nc1NC(C)(C)C | inconclusive: 11.2 µM [inhibitor, partial curve, poor fit]
COc1ccc(C(=O)c2c(C(F)(F)F)oc3c2C(=O)c2ccccc2C3=O)cc1OC | active: 3.98 µM
O=c1cc(-c2cccc(F)c2)[nH]c2ccccc12 | inconclusive: 1.26 µM [inhibitor, full curve, poor fit]
Cc1cccc(N(CC(=O)NCCSc2ccc(Cl)cc2)S(C)(=O)=O)c1C | inactive
Cc1ccc(-c2c(C(=O)N(C)Cc3ccccc3)oc(=O)c3ccccc23)cc1 | inconclusive: 11.2 µM [inhibitor, partial curve, poor fit]
CCCCCCCCCC(=O)NNC(=O)c1c(O)c2ccccc2n(CCC)c1=O | inactive
CN[C@H](C)C(=O)NC[C@H]1O[C@@H](n2ccc(N)nc2=O)[C@H](O)[C@@H]1O | inconclusive: 0.631 µM [inhibitor, partial curve, poor fit]
COc1ccc(CCNC(=O)CCCn2c(=O)c3ccccc3n(CC(=O)Nc3ccc(C)cc3Cl)c2=O)cc1OC | inconclusive: 25.1 µM [inhibitor, single point]
O=C(CC(C(=O)O)P(=O)(c1ccccc1)c1ccccc1)c1ccccc1 (stereo not drawn) | inactive
COc1ccc(CCNC(=O)NC23CC4CC(CC(C4)C2)C3)cc1 | inactive
Cc1nn2c(=O)cc(COC(=O)C(c3ccccc3)c3ccccc3)nc2s1 | inconclusive: 22.4 µM [inhibitor, single point]
CCCCCCCCCCSc1n[nH]c(N)n1 | inconclusive: 35.5 µM [inhibitor, single point]
Cc1ccc(SCC(=O)N(Cc2nc(-c3ccccc3)no2)C(C)C)cc1 | inconclusive: 22.4 µM [inhibitor, single point]
Cc1ccc2c(c1)N(C(=O)N1CCC(C(=O)NCc3cccs3)CC1)CC(C)O2 (stereo not drawn) | inconclusive: 10 µM [inhibitor, partial curve]
Cc1ccc([C@H]2N[C@]3(CCCN(Cc4ccc(Br)cc4)C3=O)[C@H]3C(=O)N(Cc4ccccc4)C(=O)[C@@H]23)cc1 | inactive
COc1ccc(C=C2CCc3ccccc3C2=O)cc1 | inconclusive: 28.2 µM [inhibitor, single point]
Cc1cc2c(cc(C(=O)OC(C(=O)NC3CCCCC3)C(C)C)n2C)o1 (stereo not drawn) | inconclusive: 35.5 µM [inhibitor, single point]
Cc1ccc(Nc2nc3c(S(=O)(=O)c4ccccc4)nnn3c3ccc(Cl)cc23)c(C)c1 | inconclusive: 15.8 µM [inhibitor, single point]
